Laboratory results taken from the supplement of paper PMC10369915.
The list shows a part of the results. Rule as the data show it: active = 3.2 or more and inactive = the rest. The signal is at background level for most entries.

Columns and labels:
Test in all cases: enrichment score (SH2-bound / input frequency) (ratio); bacterial display of known human phosphotyrosine sites (pTyr-Var adds point mutants) read by sequencing; higher = stronger binding; tyrosines were phosphorylated by kinases first
Settings in all cases: peptide library: pTyr-Var
SHP2 C-SH2 domain E139D = target: SHP2 C-SH2 domain E139D
[1] = target: SHP2 C-SH2 domain wild-type
SHP2 N-SH2 domain L43F = target: SHP2 N-SH2 domain L43F
SHP2 N-SH2 domain T42A = target: SHP2 N-SH2 domain T42A
SHP2 N-SH2 domain T52S = target: SHP2 N-SH2 domain T52S
[2] = target: SHP2 N-SH2 domain wild-type

Measured: enrichment score
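Also: displayed peptides selected on beads carrying the immobilized SH2 domain, with library peptides lacking any tyrosine serving as negative controls.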

B1: RYR1_Y245 (peptide)
chain: QRRLVYYEGGA
inactive: SHP2 C-SH2 domain E139D 0.629 | [1] 0.546 | SHP2 N-SH2 domain L43F 0.522 | SHP2 N-SH2 domain T42A 0.593 | SHP2 N-SH2 domain T52S 0.634 | [2] 0.957

B2: RYR1_Y245_G248R (peptide)
chain: QRRLVYYERGA
inactive: SHP2 C-SH2 domain E139D 0.535 | [1] 0.678 | SHP2 N-SH2 domain L43F 0.76 | SHP2 N-SH2 domain T42A 0.553 | SHP2 N-SH2 domain T52S 0.386 | [2] 0.336

B3: RYR1_Y245_G248R_YF (peptide)
chain: QRRLVYFERGA
inactive: SHP2 C-SH2 domain E139D 0.597 | [1] 0.38 | SHP2 N-SH2 domain L43F 0.732 | SHP2 N-SH2 domain T42A 0.561 | SHP2 N-SH2 domain T52S 0.51 | [2] 0.617

B4: RYR1_Y3921 (peptide)
chain: ICTVDYLLRLQ
inactive: SHP2 C-SH2 domain E139D 1.25 | [1] 1.5 | SHP2 N-SH2 domain L43F 1.24 | SHP2 N-SH2 domain T42A 1.12 | SHP2 N-SH2 domain T52S 1.14 | [2] 1.52

B5: RYR1_Y3921_I3916M (peptide)
chain: MCTVDYLLRLQ
inactive: SHP2 C-SH2 domain E139D 1.26 | [1] 1.33 | SHP2 N-SH2 domain L43F 1.03 | SHP2 N-SH2 domain T42A 1.16 | SHP2 N-SH2 domain T52S 1.06 | [2] 1.26

B6: RYR1_Y4864 (peptide)
chain: FFRKFYNKSED
inactive: SHP2 C-SH2 domain E139D 0.309 | [1] 0.438 | SHP2 N-SH2 domain L43F 0.191 | SHP2 N-SH2 domain T42A 0.424 | SHP2 N-SH2 domain T52S 0.397 | [2] 0.513

B7: RYR1_Y4864_Y4864C (peptide)
chain: FFRKFCNKSED
inactive: SHP2 C-SH2 domain E139D 0.54 | [1] 0.49 | SHP2 N-SH2 domain L43F 0.423 | SHP2 N-SH2 domain T42A 0.602 | SHP2 N-SH2 domain T52S 0.684 | [2] 0.561

B8: RYR2_Y4559_A4556T (peptide)
chain: IITVHYVLEES
active: SHP2 C-SH2 domain E139D 3.51
inactive: [1] 2.93 | SHP2 N-SH2 domain L43F 2.61 | SHP2 N-SH2 domain T42A 2.82 | SHP2 N-SH2 domain T52S 3.16 | [2] 2.34

B9: SACS_Y4333_R4331Q (peptide)
chain: IIRQLYLKWHP
active: SHP2 C-SH2 domain E139D 3.87 | [1] 3.36 | SHP2 N-SH2 domain L43F 3.43 | [2] 3.79
inactive: SHP2 N-SH2 domain T42A 2.73 | SHP2 N-SH2 domain T52S 3.08

B10: SAG_Y120 (peptide)
chain: LGSNTYPFLLT
inactive: SHP2 C-SH2 domain E139D 0.841 | [1] 0.798 | SHP2 N-SH2 domain L43F 0.789 | SHP2 N-SH2 domain T42A 0.854 | SHP2 N-SH2 domain T52S 0.936 | [2] 1.18

B11: SAG_Y129 (peptide)
chain: LTFPDYLPCSV
inactive: SHP2 C-SH2 domain E139D 0.993 | [1] 1.1 | SHP2 N-SH2 domain L43F 0.902 | SHP2 N-SH2 domain T42A 0.796 | SHP2 N-SH2 domain T52S 0.839 | [2] 1.45

B12: SARS2_Y52 (peptide)
chain: YAREGYSALPQ
inactive: SHP2 C-SH2 domain E139D 0.658 | [1] 0.681 | SHP2 N-SH2 domain L43F 0.616 | SHP2 N-SH2 domain T42A 0.481 | SHP2 N-SH2 domain T52S 0.583 | [2] 0.725

B13: SARS2_Y52_YF (peptide)
chain: FAREGYSALPQ
inactive: SHP2 C-SH2 domain E139D 0.663 | [1] 0.746 | SHP2 N-SH2 domain L43F 0.895 | SHP2 N-SH2 domain T42A 0.651 | SHP2 N-SH2 domain T52S 0.595 | [2] 0.884

B14: SART1_Y249 (peptide)
chain: RRQDLYSARDL
inactive: SHP2 C-SH2 domain E139D 0.365 | [1] 0.236 | SHP2 N-SH2 domain L43F 0.205 | SHP2 N-SH2 domain T42A 0.357 | SHP2 N-SH2 domain T52S 0.289 | [2] 0.313

B15: SART1_Y685 (peptide)
chain: AIDDKYSRREE
inactive: SHP2 C-SH2 domain E139D 0.563 | [1] 0.565 | SHP2 N-SH2 domain L43F 0.664 | SHP2 N-SH2 domain T42A 0.524 | SHP2 N-SH2 domain T52S 0.481 | [2] 0.476

B16: SASH1_Y551 (peptide)
chain: DEEPPYRGPFC
inactive: SHP2 C-SH2 domain E139D 0.583 | [1] 0.588 | SHP2 N-SH2 domain L43F 0.58 | SHP2 N-SH2 domain T42A 0.397 | SHP2 N-SH2 domain T52S 0.438 | [2] 0.614

B17: SASH1_Y551_Y551D (peptide)
chain: DEEPPDRGPFC
inactive: SHP2 C-SH2 domain E139D 0.37 | [1] 0.393 | SHP2 N-SH2 domain L43F 0.391 | SHP2 N-SH2 domain T42A 0.456 | SHP2 N-SH2 domain T52S 0.525 | [2] 0.517

B18: SBDS_Y128 (peptide)
chain: ETKRPYTVILI
inactive: SHP2 C-SH2 domain E139D 0.79 | [1] 0.97 | SHP2 N-SH2 domain L43F 0.93 | SHP2 N-SH2 domain T42A 0.962 | SHP2 N-SH2 domain T52S 0.844 | [2] 0.935

B19: SBDS_Y128_R126T (peptide)
chain: ETKTPYTVILI
inactive: SHP2 C-SH2 domain E139D 0.498 | [1] 0.874 | SHP2 N-SH2 domain L43F 0.527 | SHP2 N-SH2 domain T42A 1.28 | SHP2 N-SH2 domain T52S 0.605 | [2] 0.711

B20: SCAMP3_Y35 (peptide)
chain: RPSRQYATLDV
inactive: SHP2 C-SH2 domain E139D 0.668 | [1] 2.34 | SHP2 N-SH2 domain L43F 1.49 | SHP2 N-SH2 domain T52S 1.78 | [2] 1.11
active: SHP2 N-SH2 domain T42A 4.43

B21: SCARB1_Y133 (peptide)
chain: GSESDYIVMPN
inactive: SHP2 C-SH2 domain E139D 0.577 | [1] 0.502 | SHP2 N-SH2 domain L43F 0.638 | SHP2 N-SH2 domain T42A 0.5 | SHP2 N-SH2 domain T52S 0.542 | [2] 0.594

B22: SCLY_Y280 (peptide)
chain: EFTPLYPMLFG
inactive: SHP2 C-SH2 domain E139D 1.07 | [1] 1.23 | SHP2 N-SH2 domain L43F 0.983 | SHP2 N-SH2 domain T42A 1.04 | SHP2 N-SH2 domain T52S 1.07 | [2] 1.11

B23: SCN1A_Y1684_A1685V (peptide)
chain: LVMFIYVIFGM
inactive: SHP2 C-SH2 domain E139D 0.817 | [1] 0.794 | SHP2 N-SH2 domain L43F 0.998 | SHP2 N-SH2 domain T42A 0.598 | SHP2 N-SH2 domain T52S 1.07 | [2] 0.943

B24: SCN1A_Y1684_G1688W (peptide)
chain: LVMFIYAIFWM
inactive: SHP2 C-SH2 domain E139D 1.84 | [1] 1.4 | SHP2 N-SH2 domain L43F 1.51 | SHP2 N-SH2 domain T42A 1.65 | SHP2 N-SH2 domain T52S 2.38 | [2] 1.18

B25: SCN1A_Y1684_I1683F (peptide)
chain: LVMFFYAIFGM
inactive: SHP2 C-SH2 domain E139D 2.8 | [1] 2.19 | SHP2 N-SH2 domain L43F 2.62 | SHP2 N-SH2 domain T42A 2.19 | SHP2 N-SH2 domain T52S 2.11 | [2] 1.84

B26: SCN1A_Y1694_Y1694C (peptide)
chain: MSNFACVKREV
inactive: SHP2 C-SH2 domain E139D 0.81 | [1] 0.668 | SHP2 N-SH2 domain L43F 0.774 | SHP2 N-SH2 domain T42A 0.707 | SHP2 N-SH2 domain T52S 0.805 | [2] 0.759

B27: SCN1A_Y1926_I1922T (peptide)
chain: ITQRAYRRHLL
inactive: SHP2 C-SH2 domain E139D 0.195 | [1] 0.252 | SHP2 N-SH2 domain L43F 0.202 | SHP2 N-SH2 domain T42A 0.313 | SHP2 N-SH2 domain T52S 0.27 | [2] 0.262

B28: SCN1A_Y1926_R1928G (peptide)
chain: IIQRAYRGHLL
inactive: SHP2 C-SH2 domain E139D 0.679 | [1] 0.578 | SHP2 N-SH2 domain L43F 0.61 | SHP2 N-SH2 domain T42A 0.458 | SHP2 N-SH2 domain T52S 0.521 | [2] 0.624

B29: SCN2A_Y1919_R1918H (peptide)
chain: RAYRHYLLKQK
inactive: SHP2 C-SH2 domain E139D 0.313 | [1] 0.274 | SHP2 N-SH2 domain L43F 0.271 | SHP2 N-SH2 domain T42A 0.286 | SHP2 N-SH2 domain T52S 0.339 | [2] 0.212

B30: SCN4A_Y1074 (peptide)
chain: DKVFTYIFIME
inactive: SHP2 C-SH2 domain E139D 1.09 | [1] 1.08 | SHP2 N-SH2 domain L43F 1.02 | SHP2 N-SH2 domain T42A 0.841 | SHP2 N-SH2 domain T52S 0.979 | [2] 1.5

B31: SCN5A_Y1494 (peptide)
chain: EEQKKYYNAMK
inactive: SHP2 C-SH2 domain E139D 0.61 | [1] 0.594 | SHP2 N-SH2 domain L43F 0.702 | SHP2 N-SH2 domain T42A 0.686 | SHP2 N-SH2 domain T52S 0.718 | [2] 0.561

B32: SCN5A_Y1494_E1489D_YF (peptide)
chain: DEQKKYFNAMK
inactive: SHP2 C-SH2 domain E139D 0.671 | [1] 0.673 | SHP2 N-SH2 domain L43F 0.727 | SHP2 N-SH2 domain T42A 0.494 | SHP2 N-SH2 domain T52S 0.626 | [2] 0.727

B33: SCN5A_Y1494_K1493R_YF (peptide)
chain: EEQKRYFNAMK
inactive: SHP2 C-SH2 domain E139D 0.58 | [1] 0.489 | SHP2 N-SH2 domain L43F 0.555 | SHP2 N-SH2 domain T42A 0.693 | SHP2 N-SH2 domain T52S 0.801 | [2] 0.489

B34: SCN5A_Y1495_K1500N (peptide)
chain: EQKKYYNAMKN
inactive: SHP2 C-SH2 domain E139D 0.699 | [1] 0.678 | SHP2 N-SH2 domain L43F 0.746 | SHP2 N-SH2 domain T42A 0.717 | SHP2 N-SH2 domain T52S 0.784 | [2] 0.698

B35: SCN5A_Y1495_K1500N_YF (peptide)
chain: EQKKFYNAMKN
inactive: SHP2 C-SH2 domain E139D 0.64 | [1] 0.696 | SHP2 N-SH2 domain L43F 0.866 | SHP2 N-SH2 domain T42A 0.693 | SHP2 N-SH2 domain T52S 0.915 | [2] 0.661

B36: SCN5A_Y1495_Y1494N (peptide)
chain: EQKKNYNAMKK
inactive: SHP2 C-SH2 domain E139D 1.18 | [1] 0.966 | SHP2 N-SH2 domain L43F 0.902 | SHP2 N-SH2 domain T42A 1.01 | SHP2 N-SH2 domain T52S 1.23 | [2] 1.08

B37: SCN5A_Y1495_Y1495S_YF (peptide)
chain: EQKKFSNAMKK
inactive: SHP2 C-SH2 domain E139D 0.527 | [1] 0.521 | SHP2 N-SH2 domain L43F 0.664 | SHP2 N-SH2 domain T42A 1.06 | SHP2 N-SH2 domain T52S 0.973 | [2] 0.724
